Measurements published in PubChem BioAssay AID463173 (ICCB-Longwood Screening Facility, Harvard Medical School, 2010).
In all, about 52,000 compounds went through this assay and about 4,300 (8.3%) were called active. Rule as the data show it: active = survival mostly below about 52% (no sharp cut-off); inactive = mostly above about 56%. The list shows a part of the results.

The compounds below were run on DeltatarO mutant (assay: S. aureus survival, RN4220 and DeltatarO strains – OD600, teichoic acid synthesis inhibitors, primary screen (AID 463173)). Details: S. aureus RN4220 wild type/DeltatarO growth, OD600, 18 h, stronger effect = lower value, screened at 18.75 µg/mL (by protocol).

Compound | survival
NC(=O)c1cc2n(n1)C(C(F)(F)F)CC(c1ccc(Cl)cc1)N2 (configuration not stated) | inactive: 83%
CCOC(=O)c1c(C)[nH]c2c1cc(O)c1ccccc12 | inactive: 89%
O=C(CN1CCN(c2ncccn2)CC1)N1CCCC1 | inactive: 93%
CCCN(C(=O)c1cc(S(=O)(=O)N2CCc3ccccc32)cn1C)c1ccc(OCC)cc1 | inactive: 63%
Cc1ccc(Cl)cc1N1CCN(c2ncnc3c2nc2n3CCCC2)CC1 | inactive: 72%
Cc1ccccc1NC(=O)C(=O)NCC(c1ccc2c(c1)OCO2)N1CCN(c2ccccc2)CC1 (configuration not stated) | inactive: 73%
CCOc1ccc(C2C(C(=O)Nc3ccccc3)=C(C)Nc3nc(-c4ccccc4Cl)nn32)cc1OC (configuration not stated) | inactive: 48%
O=C(O)CC1c2ccccc2CCN1C(=O)Nc1cc(Cl)ccc1Cl (configuration not stated) | inactive: 94%
Cc1ccc(-c2nnc(N3CCOCC3)c3ccccc23)cc1S(=O)(=O)NCC1CCCO1 (configuration not stated) | inactive: 82%
CCn1cc2c(n1)-c1c(oc(C(=O)Nc3ccc(Br)cc3F)c1C)CC2 | inactive: 71%
Cc1ccc(N(CC(=O)N2CCN(c3cc(C)ccc3C)CC2)S(=O)(=O)c2c(C)nn(C)c2C)cc1 | inactive: 64%
CCOC(=O)c1noc2nc(C)n(CC(=O)Nc3cccc(OC)c3)c(=O)c12 | inactive: 108%
Cc1ccc(CN(C(=O)c2ccc(OCC(C)C)cc2)c2ccccn2)o1 | inactive: 104%
CCc1ccc(-c2nc(CS(=O)CC(=O)NCCc3ccc(C)cc3)c(C)o2)cc1 (configuration not stated) | inactive: 89%
CCOc1ccc(N(C)C(=O)c2oc(=O)c3ccccc3c2-c2ccccc2)cc1 | inactive: 55%
CC(C)c1cnc2c(c1SCC(=O)NC(C)(C)C)c(=O)n(C)c(=O)n2C | inactive: 85%
CCN(CC)C(=O)Cn1c(=O)n(CCCCCC(=O)NCc2ccc3c(c2)OCO3)c(=O)c2sccc21 | inactive: 129%
O=c1c2sc3ccccc3c2n(Cc2cccc(F)c2)c(=O)n1CCc1ccccc1 | inactive: 77%
CCC(=O)OCc1cc(=O)n2nc(C3CC3)sc2n1 | inactive: 94%

Compound | survival
Cc1ccc(NC(=O)CN2C(=O)COc3ccc(S(=O)(=O)N4CCCCCC4)cc32)c(C)c1 | inactive: 78%
Cc1ccc(CNC(=O)C(=O)Nc2c3c(nn2-c2ccc(F)cc2)CSC3)cc1 | inactive: 76%
Cc1ccc(CNC(=O)c2ccc(N3CCCC3)c(NC(=O)Nc3ccc(C)cc3)c2)cc1 | inactive: 101%
CCCc1cc(=O)oc2c3c(ccc12)OCN(Cc1ccccc1OC)C3 | inactive: 124%
CN(C(=O)Cn1nc(Cc2cccnc2)c2ccccc2c1=O)c1cccc(C(F)(F)F)c1 | inactive: 75%
O=C(Cn1c(=O)oc2ccccc21)N1CCCCC1 | inactive: 85%
Cn1cnnc1SCC(N)=O | inactive: 99%
COC(=O)COc1ccc(-c2nnc(Nc3ccc(O)cc3)c3ccccc23)cc1 | inactive: 186%
Cc1cc(Cl)ccc1-n1c(CCC(=O)O)ccc1-c1cccs1 | active: 47%
CCCCC1CCC(C(=O)N2CC(=O)Nc3ccc(Br)cc3C2c2ccc(F)cc2)CC1 (configuration not stated) | inactive: 55%
CCc1ccc(S(=O)(=O)c2nnn3c2nc(N2CCN(c4ccccc4)CC2)c2cc(Cl)ccc23)cc1 | inactive: 105%
CCc1c(C)c2ccc(O)c(CN3CCN(c4cc(Cl)ccc4C)CC3)c2oc1=O | inactive: 54%
Cc1cccc2c1-c1sc(C(=O)Nc3ccc(F)cc3F)cc1CO2 | inactive: 85%
COc1ccccc1CCNC(=O)Cc1c(C)c2cc(Cl)c(O)cc2oc1=O | inactive: 58%
CCCCOc1ccccc1C1CC(=O)Nc2ccc3ccccc3c21 (configuration not stated) | inactive: 103%
CC(C)c1ccc(S(=O)(=O)N2CCN(Cc3cccc(F)c3)CC2)cc1 | inactive: 128%
CCOc1ccc(CNC(=O)c2oc3c(c2C)-c2nn(Cc4cccc(Cl)c4)cc2CC3)cc1 | inactive: 77%
COc1ccc(C)c2sc(NC(=O)c3ccc(S(=O)(=O)N(C)C)cc3)nc12 | inactive: 92%
Cc1cc(C)cc(OCC(=O)Nc2cccc3cccnc23)c1 | inactive: 73%

Compound | survival
CCCc1cnc2c(c1SCC(=O)NCc1ccc(C)cc1)c(=O)n(C)c(=O)n2C | active: -4%
CCCCCCC(=O)Nc1ccc2nc3c(=O)n(C)c(=O)n(C)c3nc2c1C | inactive: 81%
O=C(c1ccc2c(c1)N(Cc1ccc(Cl)cc1)C(=O)c1ccccc1S2(=O)=O)N1CCCC1 | inactive: 65%
CCOC(=O)c1ccc(N2C(=O)c3n[nH]c(-c4ccco4)c3C2c2ccc(C(=O)OC)cc2)cc1 (configuration not stated) | inactive: 89%
CCOc1ccc(NS(=O)(=O)c2c(C)nc3sc(C)c(C)n3c2=O)cc1 | inactive: 75%
CCOC(=O)C1CCN(C(=O)c2ccccc2NC(=O)c2nsc3ccccc23)CC1 | inactive: 128%
CCN1C(=O)c2ccccc2S(=O)(=O)c2ccc(C(=O)NCc3ccccc3)cc21 | inactive: 71%
O=C(CSc1ncc(-c2ccccc2)[nH]1)Nc1ccccc1 | inactive: 64%
CCOC(=O)C1CCC(CN(Cc2ccc(Cl)cc2)S(=O)(=O)c2cccc(Cl)c2C)CC1 (configuration not stated) | inactive: 87%
Cc1nc2nc(NC(=O)c3ccc(C(C)(C)C)cc3)[nH]n2c(=O)c1C | inactive: 95%
O=C(CCC1N=C2c3ccccc3N=C(SCC(=O)Nc3cccc(Cl)c3)N2C1=O)NCc1ccco1 (configuration not stated) | inactive: 76%
O=C(Cn1cnc2ccccc2c1=O)NCc1ccccc1 | inactive: 82%
O=C(CN1C(=O)C2CCc3[nH]c4ccccc4c3C2C1=O)N1CCCC1 (configuration not stated) | inactive: 86%
CCOc1ccc(-c2cccc(NS(=O)(=O)c3ccc(C)s3)c2)nn1 | inactive: 83%
CCOC(=O)C1CCN(C(=O)c2cc3sc(C)cc3n2C)CC1 | inactive: 74%
CCCCN(CC)C(=O)CSc1nc2n[nH]c(C)c2c(=N)n1-c1ccc(CC)cc1 | inactive: 108%
COc1ccc(NC(=O)CSc2ncc3c(n2)-c2ccccc2N(Cc2ccc(C)cc2)S3(=O)=O)cc1Cl | inactive: 136%
COCCCn1c(=O)c2sccc2n2c(CCCC(=O)NCc3cccc(OC)c3)nnc12 | inactive: 84%
Cc1c(CCC(=O)O)c(=O)[nH]c2ccccc12 | inactive: 108%
